# Results taken from the supplement of paper PMC3334620.
# The full ranking holds about 33,000 sequences; the median of “E-score (-0.5 to 0.5)” is about -0.041, and the highest 2% start at about 0.37. Some of the results follow.
# Biological target: T1, Ecm22 (UniProt Q05958)
# T1 sequence: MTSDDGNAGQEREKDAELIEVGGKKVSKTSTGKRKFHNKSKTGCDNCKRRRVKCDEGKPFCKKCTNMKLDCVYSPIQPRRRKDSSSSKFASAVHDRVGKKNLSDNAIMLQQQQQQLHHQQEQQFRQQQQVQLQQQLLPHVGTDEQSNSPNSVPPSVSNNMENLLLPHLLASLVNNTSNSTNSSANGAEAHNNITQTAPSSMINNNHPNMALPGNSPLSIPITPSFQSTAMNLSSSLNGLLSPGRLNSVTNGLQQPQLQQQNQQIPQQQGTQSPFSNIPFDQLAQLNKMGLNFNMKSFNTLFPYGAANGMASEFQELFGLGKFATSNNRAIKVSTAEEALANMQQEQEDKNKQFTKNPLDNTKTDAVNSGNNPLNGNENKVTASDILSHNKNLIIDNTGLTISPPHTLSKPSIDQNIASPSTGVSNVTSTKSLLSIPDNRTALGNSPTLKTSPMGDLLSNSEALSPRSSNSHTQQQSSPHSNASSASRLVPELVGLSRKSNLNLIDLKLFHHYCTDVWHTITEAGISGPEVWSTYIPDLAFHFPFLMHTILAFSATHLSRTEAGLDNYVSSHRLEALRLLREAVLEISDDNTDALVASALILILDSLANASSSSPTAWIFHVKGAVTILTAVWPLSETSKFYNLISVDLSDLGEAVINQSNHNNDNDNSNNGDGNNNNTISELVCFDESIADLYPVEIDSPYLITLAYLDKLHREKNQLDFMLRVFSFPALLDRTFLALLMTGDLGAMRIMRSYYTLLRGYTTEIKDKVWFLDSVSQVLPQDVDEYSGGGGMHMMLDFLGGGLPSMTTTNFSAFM
# Assay: PBM E-score (8-mer binding enrichment) (E-score (-0.5 to 0.5)); higher = stronger / more preferred TF binding; most listed sequences are background and not binding sites
# Conditions: protein concentration: 200 nM; construct: GST-full length
# In short: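 Masliner-normalised scans of fluorescent anti-GST signal were the basis for scoring. That signal came from GST-tagged yeast transcription factors applied at about 100-200 nM to double-stranded universal all-10-mer Agilent arrays on fresh or once-stripped slides. Each ungapped eight-base word, pooled with its reverse complement, received an E-score from the Universal PBM Analysis Suite.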
row,Sequence,PBM E-score
1,GGCACCTA,-0.0654
2,AGAGAATA,-0.204
3,AGTCGAGC,-0.134
4,AGTAATTC,-0.0252
5,AAACATTG,-0.147
6,CATATGTA,-0.0192
7,ACGCTACG,0.382
8,GACGTAGC,0.0751
9,CTGTCCTC,-0.227
10,GTATGTGA,0.107
11,CGTAAACA,0.385
12,GTCAGGTA,-0.0731
13,ATAGAGCA,-0.0337
14,CTTCATTA,-0.183
15,AGCTGACG,-0.151
16,TAGCTTCA,-0.247
17,CGACATGA,0.131
18,GGACCAAC,-0.195
19,AAATGGGC,-0.207
20,CGAGGTAC,0.347
21,TAGTGATA,-0.0351
22,CTACTTCC,0.0408
23,ATATTCTA,0.0553
24,GACATATA,0.186
25,TCAAACGA,0.452

row,Sequence,PBM E-score
1,AGGCCCCT,-0.278
2,CATTTTAC,0.222
3,ATTCATTC,0.129
4,CACGGACA,-0.169
5,TACTGCGA,0.136
6,GAGACTTA,-0.124
7,AGACATCC,-0.0743
8,AGCCATAA,-0.0779
9,AAGCGTAA,0.0353
10,CTCCATGA,-0.107
11,CTTATGCA,-0.0389
12,GTAAGTAC,0.193
13,AGGTTCTC,0.0993
14,CTTCGGCA,0.138
15,AGATTACC,-0.016
16,ACCAAATC,-0.151
17,CCACCCAC,-0.181
18,AGTGAGGC,-0.181
19,GCCTGCTA,-0.251
20,AGCACGAA,-0.0128
21,TAATTGCA,0.0349
22,ATCTGGCC,-0.211
23,GTCTTGTA,-0.00678
24,ATACCGCC,-0.0633
25,GTCTAGAC,-0.0216

row,Sequence,PBM E-score
1,CCTCCCAC,-0.119
2,TAATGGTA,0.0455
3,TAGTAACA,-0.0453
4,AAATTGTA,0.128
5,CCCCAAGA,-0.302
6,ACGAGTTA,0.422
7,GCAGCTTA,-0.157
8,CGCTATTC,0.0841
9,ATTGTATG,-0.0682
10,AATGCCTC,0.118
11,CAGCCGTC,-0.109
12,GATGACGC,0.117
13,AGTATTTG,-0.0191
14,AGAGCAAC,0.117
15,CGCATGGC,-0.0244
16,GAAAGACA,-0.0973
17,CGGCAATC,-0.00861
18,ACATACCA,-0.146
19,CTCATTCC,-0.315
20,GGTCGGGA,0.18
21,ATTGCGGG,-0.123
22,AACGTTAT,0.0997
23,ACGTAACT,-0.0711
24,CCGGATCG,0.1
25,AGCGCTAT,-0.048

row,Sequence,PBM E-score
1,AAGACCGA,0.214
2,CGTTCTGA,0.0774
3,GCAGTTCA,-0.108
4,CAGGTTTC,-0.122
5,AGAACTCG,0.0859
6,CCGGGTTA,0.0418
7,AGTCACGA,-0.0157
8,CGTTACTA,0.117
9,CTCTCACA,-0.318
10,CCGGAGGC,-0.175
11,GTGTGCCA,-0.0883
12,AAGCGCTC,0.00471
13,CTGTGAGA,-0.33
14,ATTCCTAC,-0.131
15,ATTATCCG,0.212
16,AAGTCAAT,-0.121
17,CAAAGAAA,0.0868
18,TTCCGGAA,-0.0556
19,GACTGACA,-0.208
20,GACTCTCC,0.0568
21,AAATCCGT,0.00949
22,AAGCTACT,0.084
23,ATTCGGTG,0.0584
24,AGAGTCCA,-0.184
25,CTACCGGC,-0.318

row,Sequence,PBM E-score
1,ACCTTGCG,0.0236
2,CGTGCTCC,-0.0174
3,GCTCCATA,-0.0352
4,GGGAGTCA,-0.28
5,ATTATCGG,0.163
6,ACCCCGGG,-0.0989
7,GACAGAAC,0.0871
8,ATAACCAT,0.0281
9,CTGCAAGA,-0.0557
10,ACCCCATG,-0.251
11,ACAGTTTG,-0.147
12,AAGCTAAA,-0.0783
13,CAGTTGCG,-0.0105
14,AGCGGGCA,-0.0923
15,CGGTCACC,0.0101
16,ATTTTGAG,-0.139
17,ACTGTACG,0.42
18,CAAATGGA,0.0128
19,CAAGCCAG,-0.21
20,AGCCTATC,-0.152
21,CGAGCCAG,0.232
22,CCGTACAA,0.4
23,ATAACGTG,-0.0623
24,ACACTGGT,-0.0766
25,AATCCACC,-0.063

row,Sequence,PBM E-score
1,CACTAGCC,-0.131
2,ATGTGCAA,0.00963
3,ATATGAAG,-0.151
4,CACAAAAA,-0.0358
5,ATGTCGCC,0.0464
6,AAAGTTAG,-0.0323
7,GCTGGTTA,-0.132
8,CATACCAG,-0.0569
9,TAAGTAAA,0.0259
10,AGGAAATG,-0.11
11,AACAGCTC,-0.0746
12,GCGCCCCA,-0.158
13,AACCGCCT,0.029
14,AGCAGGTG,-0.226
15,ACGATTAT,0.306
16,ACGACCTG,0.32
17,CCCACACA,-0.218
18,TAAGCCGA,0.15
19,AAGTGAGC,-0.109
20,GGGGATGA,-0.225
21,ACTTCTGA,-0.348
22,CAAACAAC,0.0325
23,ATAAACCC,-0.0127
24,GTAAGCTA,-0.0496
25,ACTACCTC,-0.147

row,Sequence,PBM E-score
1,GACAACGC,-0.0105
2,AAGAATCG,0.185
3,CCTGATGA,-0.0201
4,ACTTCGTA,0.434
5,AGCGTCAG,-0.246
6,ACTTACCC,-0.0323
7,CTCTTTGA,-0.189
8,ACCTCGCG,0.26
9,ATCAATTG,0.112
10,GCCACCCA,-0.285
11,ATGAAGGA,-0.0112
12,CCGTTGCA,0.0122
13,GTTATGAA,0.0485
14,CAATTGAA,-0.0626
15,ACGTGCAG,-0.0501
16,CGCTGAAG,-0.00934
17,ACCTACCG,-6e-05
18,AACTCCTT,-0.0269
19,GAGTCATC,-0.104
20,CTGGATGC,-0.159
21,GCGAAAGA,0.1
22,AGCGAAAT,0.16
23,GAATACAA,0.118
24,GACAAAAA,0.0341
25,CGTTGCGC,0.347

row,Sequence,PBM E-score
1,ATTGGCTC,-0.013
2,CGAAGGTC,0.259
3,ATCGGGGG,-0.184
4,ACGCCCTC,0.0597
5,GGGGAGTA,-0.161
6,ATACTTGG,-0.13
7,ATCTATGG,-0.0718
8,AATGGGTG,-0.06
9,ACGAGACA,0.315
10,AAAGGCCG,0.0814
11,GTGTCAAA,-0.0701
12,ATGAATTA,0.0701
13,CCTACGTC,-0.0362
14,CATTAACC,-0.0348
15,ATCAGTCG,-0.00885
16,ACTGTTCT,-0.065
17,ATTCACTC,-0.0367
18,AAAACCAA,-0.0224
19,CATTCCCG,0.0847
20,CAGTACAA,-0.0343
21,AAAAGCTT,-0.112
22,ACATGTCC,-0.0399
23,AATCTCAC,0.0359
24,GTACGGGA,0.419
25,GGCAGTAC,-0.0784

row,Sequence,PBM E-score
1,CCATTGGG,-0.127
2,ATTTCAAG,-0.244
3,GCCGGTAC,0.129
4,AAGAGAGA,-0.165
5,GCGCATCC,-0.0943
6,GTATACAA,0.161
7,AATTCCAG,-0.122
8,AATTTAAG,0.037
9,CATCCTCA,-0.113
10,CAGTGATA,-0.0517
11,ATAGCTAA,-0.209
12,ATGGCTAA,-0.0821
13,AAACGCGG,0.164
14,GGATGTAC,0.168
15,AAGATTCT,-0.263
16,GTTCACGA,0.205
17,CTCTACAG,-0.0754
18,CAGTTCTA,-0.0486
19,AGCGACCA,0.144
